Results taken from the supplement of paper PMC3334620.
In all, about 33,000 sequences were measured (“E-score (-0.5 to 0.5)”: median about -0.04, highest 2% from about 0.36 on). The list shows a part of the results.

biological target: T1, Hmlalpha2 (UniProt P0CY09); test: PBM E-score (8-mer binding enrichment) (E-score (-0.5 to 0.5)); higher = stronger / more preferred TF binding; most listed sequences are background and not binding sites; conditions: protein concentration: 200 nM; construct: GST-full length
T1 sequence: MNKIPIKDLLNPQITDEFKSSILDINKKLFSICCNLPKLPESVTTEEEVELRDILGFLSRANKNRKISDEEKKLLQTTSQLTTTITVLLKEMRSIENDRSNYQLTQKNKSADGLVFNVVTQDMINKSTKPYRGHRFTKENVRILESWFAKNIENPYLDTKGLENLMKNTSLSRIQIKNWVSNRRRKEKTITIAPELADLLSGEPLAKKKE
Procedure, shortened: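 Bound GST-tagged yeast transcription factors, applied at about 100-200 nM to double-stranded universal all-10-mer Agilent arrays, were detected with fluorescent anti-GST. Scans were normalised with masliner. A modified Wilcoxon-Mann-Whitney statistic, the E-score, was assigned to each ungapped eight-base word pooled with its reverse complement by the Universal PBM Analysis Suite.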

Row | Sequence | PBM E-score
1 | CAGGAGCG | -0.0918
2 | CCGTCTCC | -0.312
3 | AGGCTGAA | -0.074
4 | GTGAGCGA | -0.181
5 | AGAGACCC | -0.226
6 | ACTCGTAT | 0.119
7 | CACACTAA | 0.191
8 | AAGTACGA | 0.101
9 | GGGACGGA | -0.409
10 | GATAGCAC | -0.141
11 | CAGGCATA | -0.138
12 | TCCCACCA | -0.136
13 | GAAGCCGC | -0.151
14 | CGGAACAG | -0.247
15 | GACTGCTC | -0.212
16 | ATGTATCA | 0.271
17 | GCTGGACC | -0.296
18 | AAAATGTT | 0.254
19 | GTAAATCA | 0.333
20 | GAGTAATC | 0.124
21 | AGAATCAG | -0.191
22 | AGTGCTCC | -0.226

Row | Sequence | PBM E-score
23 | CGAACCAC | -0.161
24 | AACCGATT | -0.0547
25 | GATGCGCA | -0.142
26 | GGCGGTAC | -0.194
27 | ATGTGTGG | 0.0473
28 | TCAGCGCA | -0.118
29 | ACATATTA | 0.389
30 | CTGGTAAG | -0.0519
31 | AAGAGGAA | -0.11
32 | AGGTTTGA | -0.159
33 | ACTCGTTA | 0.0828
34 | GGAGCGTA | 0.0109
35 | ACAAATAT | 0.255
36 | TCTCTCAA | 0.0292
37 | AGACAACA | 0.214
38 | AAACTAAC | 0.272
39 | AAGACACC | -0.166
40 | ATTAGTCC | -0.0808
41 | GATTCCCA | -0.191
42 | AAGCGTTC | -0.0758
43 | AGCATCCT | -0.223
44 | AGACATCT | -0.158

Row | Sequence | PBM E-score
45 | GGTGTAGA | 0.176
46 | AGCACCGG | -0.24
47 | ATCTCCAC | -0.0649
48 | AATAAAAT | 0.217
49 | GCCTGGCA | -0.205
50 | ATGCAATA | 0.173
51 | CGAAATAA | 0.131
52 | GCAACAAC | 0.165
53 | TCACTTCA | -0.131
54 | AAAGCTTA | 0.102
55 | GAGCATAC | 0.0354
56 | ACAACCAA | -0.00406
57 | AGTCCCAC | -0.303
58 | CGAATTCC | -0.0493
59 | GAACCCCC | -0.407
60 | AATAGTCC | -0.118
61 | GGGAGGAC | -0.236
62 | ACCGAAGT | -0.0175
63 | CGGACACA | -0.0204
64 | ATGCCTCC | -0.174
65 | CCCTCAGA | -0.285
66 | CGCTTGCC | -0.0338

Row | Sequence | PBM E-score
67 | CACGGACG | 0.208
68 | TTAGAGAA | -0.0628
69 | AGTAAACC | 0.0456
70 | CAATTAAA | 0.074
71 | CGACGTCA | -0.0558
72 | AATTTCCT | -0.122
73 | AGACTATA | 0.0277
74 | CAGGATCC | -0.279
75 | CCTGCCTC | -0.388
76 | ACGACTGG | -0.159
77 | CCCGTACG | -0.198
78 | CCTTCAAC | 0.058
79 | CGGGGCAA | -0.242
80 | CGTTTCAC | 0.0369
81 | ACACGAAC | 0.363
82 | ATCGTCAT | 0.0742
83 | CACTAACA | 0.162
84 | AGTTGACG | 0.0733
85 | GATCAAAC | -0.0737
86 | AGTGAGCC | -0.138
